Results published in PubChem BioAssay (NCI).
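Protocol summary: plate cells (96-well), add compound at 5 concentrations, incubate 48 h, interpolate endpoints linearly. At the GI50, growth is halved.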 Not every entry of the source has a single result; some have several. They are shown here; other results are not. The source may hold further records. For part of these data: Results that share an entry are repeated measurements in other runs, samples, wells, individuals or studies. Records carry a tag for their origin. A, B and so on number the origins entry by entry.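 TGI marks complete inhibition of growth.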 For part of these data: A record mostly stands for its own series of concentrations, not given here; a value can be the end of its range.

Assays:
Experiment in all cases: NCI tumour cell line growth inhibition, 48 h
OVCAR-4 ovarian = tested on: OVCAR-4 ovarian
HOP-92 NSCLC = tested on: HOP-92 NSCLC
LOX IMVI melanoma = tested on: LOX IMVI melanoma
786-0 renal = tested on: 786-0 renal
EKVX NSCLC = tested on: EKVX NSCLC
MOLT-4 leukemia = tested on: MOLT-4 leukemia
HL-60(TB) leukemia = tested on: HL-60(TB) leukemia
SR leukemia = tested on: SR leukemia
CCRF-CEM leukemia = tested on: CCRF-CEM leukemia
SK-MEL-2 melanoma = tested on: SK-MEL-2 melanoma

CCCCS(=N)(=O)CC[C@H](N)C(=O)O (some centres not stated)
TGI (OVCAR-4 ovarian): 2.87 mM and 45.2 µM
TGI (HOP-92 NSCLC): 355 µM and > 10 mM
TGI (LOX IMVI melanoma): 967 µM and 4.57 µM

Nc1nc(N)c2ncn(CC(CO)CC(c3ccccc3)P(=O)(O)O)c2n1 (configuration not stated)
GI50 (786-0 renal): > 100 µM [sample A, 1 test] and 1.35 µM [sample B, 1 test]
TGI (786-0 renal): > 100 µM [sample A, 1 test] and 4.32 µM [sample B, 1 test]
GI50 (EKVX NSCLC): > 100 µM [sample A, 1 test] and 780 nM [sample B, 1 test]

COC1C(O)=C2C(=O)OC(C)(O)/C=C/C=C\C=C/C=C/C(c3ccccc3)NC(=O)/C=C/C=C/C=C/C=C/C2(C)C1O (configuration not stated)
TGI (MOLT-4 leukemia): 57.7 nM and 612 nM
TGI (HL-60(TB) leukemia): 464 nM and > 100 µM
TGI (SR leukemia): 41.4 nM and > 100 µM
TGI (CCRF-CEM leukemia): 47.8 nM and > 100 µM

Cn1cnc([N+](=O)[O-])c1Sc1ncnc2nc[nH]c12
GI50 (HOP-92 NSCLC): 341 nM [sample A, mean of 2 tests] and 17.7 µM [sample B, 1 test]
GI50 (SK-MEL-2 melanoma): > 39.8 µM [sample A, mean of 2 tests] and 3.38 µM [sample B, 1 test]
